Source: article PMC4336329 (PLoS ONE, 2015)
Out of some 310,000 compounds screened, about 14,000 (4.5%) showed an effect of 50% or more. Effects have a minus sign here. The list shows a part of the results.

Molecular target: human ether-à-go-go-related gene (hERG) potassium channel (human, UniProt Q12809)
Assay: primary screen, population patch clamp on CHO cells stably expressing hERG
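Further: peak tail current of the secondary pulse compared with the same well before compound.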

Chain of human ether-à-go-go-related gene (hERG) potassium channel (Q12809 whole entry, looked up): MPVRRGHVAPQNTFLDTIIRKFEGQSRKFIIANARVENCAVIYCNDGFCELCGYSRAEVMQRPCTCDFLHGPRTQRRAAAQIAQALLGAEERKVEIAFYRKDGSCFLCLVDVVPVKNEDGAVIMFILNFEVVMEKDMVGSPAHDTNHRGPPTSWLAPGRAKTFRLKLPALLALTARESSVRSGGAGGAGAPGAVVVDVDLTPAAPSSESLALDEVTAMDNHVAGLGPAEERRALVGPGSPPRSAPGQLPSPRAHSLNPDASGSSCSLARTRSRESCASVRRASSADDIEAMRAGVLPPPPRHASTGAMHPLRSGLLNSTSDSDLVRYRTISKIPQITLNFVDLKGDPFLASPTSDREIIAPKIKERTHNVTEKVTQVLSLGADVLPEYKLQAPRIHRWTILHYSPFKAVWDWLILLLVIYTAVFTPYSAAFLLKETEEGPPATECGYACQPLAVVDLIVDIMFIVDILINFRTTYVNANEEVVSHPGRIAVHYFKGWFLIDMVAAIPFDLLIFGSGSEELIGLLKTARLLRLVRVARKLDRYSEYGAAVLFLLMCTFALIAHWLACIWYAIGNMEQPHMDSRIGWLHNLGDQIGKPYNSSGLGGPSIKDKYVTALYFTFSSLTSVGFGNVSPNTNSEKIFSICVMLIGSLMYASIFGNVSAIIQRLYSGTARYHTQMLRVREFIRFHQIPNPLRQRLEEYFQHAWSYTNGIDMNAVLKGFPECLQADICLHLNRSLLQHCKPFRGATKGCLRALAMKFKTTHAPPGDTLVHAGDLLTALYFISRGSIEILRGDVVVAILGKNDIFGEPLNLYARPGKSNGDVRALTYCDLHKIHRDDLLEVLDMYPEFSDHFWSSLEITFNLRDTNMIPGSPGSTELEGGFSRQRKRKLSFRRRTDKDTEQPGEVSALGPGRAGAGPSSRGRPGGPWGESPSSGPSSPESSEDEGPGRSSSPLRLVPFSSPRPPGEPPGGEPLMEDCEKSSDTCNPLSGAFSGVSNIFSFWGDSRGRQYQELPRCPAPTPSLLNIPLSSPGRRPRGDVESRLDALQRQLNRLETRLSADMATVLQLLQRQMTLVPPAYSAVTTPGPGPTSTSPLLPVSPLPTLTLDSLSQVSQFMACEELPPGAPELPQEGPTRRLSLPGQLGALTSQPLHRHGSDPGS

Row | Compound | hERG current change (%, negative = inhibition) at 10uM
1 | Cc1c(Cl)cccc1NC(=O)CSc1nnc(C)n1CC1CCCO1 (stereo not drawn) | 9.21%
2 | CCOC(=O)c1nn(-c2ccc(F)cc2)c2nc(-c3ccccc3)c(C#N)c(=O)n12 | -1.46%
3 | Clc1cccc(-c2ccc(/C=N/n3cnnc3)o2)c1Cl | 3.94%
4 | O=C(NN=C1CCCC1)c1ccc(Cl)cc1 | 15.3%
5 | Cc1ccc2c(c1)sc1nc(=O)n(-c3ccccc3)c(=O)n12 | 1.9%
6 | c1ccc(CSc2nnc(-c3ccco3)c(-c3ccco3)n2)cc1 | -3.41%
7 | CCO[C@H]1OC(C(=O)Nc2ccccc2)=C[C@@H](c2ccc(C(F)(F)F)cc2)[C@@H]1CCCO | -8.39%
8 | Cc1cccc(NC(=O)C(C)C(=O)c2ccccc2)c1 (stereo not drawn) | 15.7%
9 | OCCn1c(C(F)(F)F)nc2ccccc21 | 6.85%
10 | CCOC(=O)c1ccc(NS(=O)(=O)c2ccc3c(c2)CCCN3C(C)=O)cc1 | -6.72%
11 | S=C(Nc1ccc(Cl)cc1)Nc1cccc2cnccc12 | -11%
12 | COCCNC(=O)C(c1ccc(O)cc1)N(Cc1ccco1)C(=O)CCC(=O)Nc1nccs1 (stereo not drawn) | 3.92%
13 | CC(=O)Nc1ccc(S(=O)(=O)Nc2ccccc2C(=O)N2CCCCC2)cc1 | 12.5%
14 | Cc1ccc(S(=O)(=O)NC(=O)Nc2nnc(C)s2)cc1 | 14.4%
15 | COc1cccc(N/C=C/c2onc(C)c2[N+](=O)[O-])c1 | 8.8%
16 | Cc1cc(S(=O)(=O)NC2CCCCC2)ccc1OCC(=O)N1CCOCC1 | 21.6%
17 | CN1CCN(C2=Cc3ccccc3Sc3cc(F)c(Cl)cc32)CC1.O=C(O)/C=C\C(=O)O | -12.4%
18 | O=C(CCN1CCN(C(=O)c2ccccc2)CC1)c1ccc(Br)cc1 | -29.5%
19 | COc1ccc(Cc2nnc(-c3ccc(F)cc3)o2)cc1OC | -12.5%
20 | Cc1ccc(C(=O)N/C(=C\c2ccco2)C(=O)N2CC(C)OC(C)C2)cc1C (stereo not drawn) | -10.3%
21 | COc1cc(/C=N/Nc2nc(=O)[nH]nc2C)ccc1O | 4.93%
22 | Cc1cccc(N2CCN(C(=O)c3ccc4nc(-c5ccco5)c(-c5ccco5)nc4c3)CC2C)c1 (stereo not drawn) | 2.44%

Row | Compound | hERG current change (%, negative = inhibition) at 10uM
23 | CCOC(=O)CNC(=S)n1ncnc1N | 9.69%
24 | O=C(NCCCN1CCc2ccccc2C1)C1CCN(S(=O)(=O)N2CCC3(CC2)OCCO3)CC1 | -12.4%
25 | Cc1nnc(SCC(=O)NN2C(=O)NC3(CCCCC3)C2=O)s1 | 35.5%
26 | O=C1CN=C(c2ccc(Br)cc2)c2c(sc3c2CCCC3)N1CCN1CCCCC1 | -64.4%
27 | CSc1nc(N)nc(SCCS(=O)(=O)c2ccc(Cl)cc2)c1C#N | -3.5%
28 | COc1cccc(C(=O)C2CCCN(Cc3cccc(C)n3)C2)c1 (stereo not drawn) | -53.4%
29 | Cc1ccccc1C(=O)c1cccn1CC(=O)NCCCN1CCCCC1 | -41.9%
30 | Cc1ccc(S(=O)(=O)CCC(=O)OCC(=O)N2CCN(S(=O)(=O)c3ccc(Cl)cc3)CC2)cc1 | 25%
31 | CCCCCOC(=O)CSc1nc2c(c(=O)[nH]c(=O)n2C)n1CCc1ccccc1 | 19.9%
32 | CCCn1c(SCC(=O)N2CCN(c3ccccc3)CC2)nc2ccccc2c1=O | -56.7%
33 | COC(=O)NC1CSCC1OC(=O)c1ccc(Br)cc1 (stereo not drawn) | -15.7%
34 | COc1ccc(N2CCc3c(C)nc4c(OC)cc(OC)cc4c32)c(OC)c1 | -75.3%
35 | COc1ccccc1NC(=O)CSc1nncn1N | 6.36%
36 | O=S(=O)(Nc1ccccn1)c1ccc(C(F)(F)F)cc1Cl | 13.9%
37 | COc1ccc(-c2cc(C(=O)NCCN3CCOCC3)c3cc(C(C)C)ccc3n2)cc1 | 17.2%
38 | O=[N+]([O-])c1cc(C(F)(F)F)cc([N+](=O)[O-])c1NCc1cccnc1 | -43.3%
39 | CCn1c(CNC(=O)COC)nc2ccccc21 | -4.87%
40 | Cc1ccc2oc3c(c(=O)c2c1)C(c1cccc(Cl)c1)N(CCCN1CCOCC1)C3=O (stereo not drawn) | -38.2%
41 | COc1ccc(/C=C/C(=O)OCC(=O)c2ccc(S(=O)(=O)N3CCCCC3)cc2)cc1OC | 10.2%
42 | COc1ccc(-c2ccc(Nc3ccc(C(=O)N4CCOCC4)cc3)nn2)cc1OC | -5.3%
43 | Cc1ccc2oc(=O)c3cnn(CC(=O)NC4CCCCC4C)c3c2c1 (stereo not drawn) | 8.43%
44 | CCn1cc(/C=N\NC(=O)c2c[nH]c3ccccc23)c(C)n1 | -5.79%

Row | Compound | hERG current change (%, negative = inhibition) at 10uM
45 | CC[C@H](C)[C@H](NS(=O)(=O)c1ccc(C)cc1)C(=O)N1CCC(C(=O)N[C@@H](C)C(=O)O)CC1 | 19.2%
46 | C[N+]1(CCNC(=O)/C=N/O)CCCCC1.[I-] | 17.6%
47 | CN(C)c1ccc(-c2cccc(C3CC=CC4C3C(=O)N(Cc3ccccc3)C4c3ccc4ccccc4c3)c2)cc1 (stereo not drawn) | 17.5%
48 | CCS(=O)(=O)N1CCN(C(=O)c2ccccc2)CC1 | 1.59%
49 | CN(C)C(/C=C/Nc1ccc(O)cc1)=C(C#N)C#N | 14.7%
50 | Cc1ccc(CSc2nnc3nc(C)cc(C)n23)cc1 | -13.5%
51 | Cc1ccc(Cn2nc3c(cc2=O)CCc2ccccc2-3)cc1 | -10.8%
52 | Cc1cc(C)c2c(=O)[nH]n(C3CCCCCC3)c2n1 | 23.5%
53 | O=C(/C=C/c1ccccc1)Oc1cccc(C(=S)N2CCOCC2)c1 | 25.2%
54 | O=C(c1ccc(-c2ccccc2Cl)o1)N1CCN(S(=O)(=O)c2cccs2)CC1 | 15.9%
55 | CCOC(=O)C1=C(C)NC(SCC(N)=O)=C(C#N)C1c1cccs1 (stereo not drawn) | -13.2%
56 | Cc1nnc(SCC(=O)NC2CCS(=O)(=O)C2)n1Cc1ccccc1 (stereo not drawn) | 24.6%
57 | O=C(CNC(=O)c1ccc(Cl)cc1)NC1CCCCC1 | 16.3%
58 | COC(=O)c1[nH]c2cc(OC)ccc2c1NC(=O)CN1CCC(C(N)=O)CC1 | 16.7%
59 | CC(C)(CNC(=O)c1ccccc1F)CNC(=O)c1ccccc1F | 6.78%
60 | CCOC(=O)c1c(-c2ccccc2)csc1NC(=O)CCN1CCOCC1.O=C(O)C(=O)O | -33.2%
61 | Cc1ccc(N2C(=S)NC3c4ccccc4OC2(C)C3C(=O)N(C)C)cc1 (stereo not drawn) | 20.6%
62 | OCc1cn(-c2ccccc2)nc1-c1ccc2c(c1)OCCO2 | 5.83%
63 | COc1ccc(N2CC(C(=O)N3CCN(c4ccccc4OC)CC3)CC2=O)cc1 (stereo not drawn) | 1.8%
64 | Cc1cc(N/N=C/c2cccc([N+](=O)[O-])c2)nc(-n2nc(C)cc2C)n1 | 8.28%
65 | CCOc1cccc(NC(=O)CSc2nc(C)c3c(c2C#N)CCCC3)c1 | 0.331%
66 | CC(C)(C)NC(=O)C(c1ccncc1)N(Cc1cccs1)C(=O)Cn1nnc(-c2ccc(F)cc2)n1 (stereo not drawn) | -39.8%

Row | Compound | hERG current change (%, negative = inhibition) at 10uM
67 | CCOC(=O)c1cc(CC)sc1NC(=O)Cc1ccsc1 | 1.53%
68 | O=Cc1nc(-c2ccccc2Cl)n2ccccc12 | -10%
69 | COc1cc(/C=N/NC(=O)CCN2CCN(C)CC2)cc2c1OCO2 | 11.4%
70 | O=c1ccc(S(=O)(=O)N2CCCC2)cn1Cc1nc(-c2ccccc2)no1 | -12.7%
71 | Cc1nn(C)c(C(=O)Nc2c(C)nn(Cc3c(F)c(F)c(F)c(F)c3F)c2C)c1Br | 2.48%
72 | Cc1ccc(OCC(=O)N/N=C\c2ccc(O)cc2)c([N+](=O)[O-])c1 | 28.7%
73 | O=C(Oc1ccc(-c2nnco2)cc1)N1CCOCC1 | 1.23%
74 | O=S(=O)(c1ccccc1Br)N1CCN(c2ncccn2)CC1 | 0.297%
75 | Cc1ccc(-c2nnc3ccc(SCC(=O)Nc4cc(C)on4)nn23)cc1 | -10.4%
76 | CCn1ncc(C2=NOC(C(=O)Nc3cccc(O)c3)C2)c1C (stereo not drawn) | 7.13%
77 | Nc1nnn(CC(=O)N/N=C/c2ccc(O)cc2)n1 | 44.9%
78 | Cc1nn(-c2ccccc2)c(N2CCCC2)c1/C=N/NC(=S)Nc1cc(C(F)(F)F)ccc1Cl | 5.21%
79 | O=C(N/N=C/c1ccccc1[N+](=O)[O-])c1ccncc1 | 13.7%
80 | CCC(C(=O)O)n1c(C(F)(F)F)nc2ccccc21 (stereo not drawn) | 14.5%
81 | Cc1ccc2nc(-c3cccc(S(=O)(=O)N(C)C)c3)cn2c1 | 8.22%
82 | Cc1ccc(S(=O)(=O)CCc2nnc(NC(=O)c3ccco3)s2)cc1 | 12.2%
83 | COC(=O)c1cccc(N2C(=O)C3C4C=CC(CC4)C3C2=O)c1 (stereo not drawn) | 3.99%
84 | CCC(=O)Nc1ccc(Cl)c(NC(=O)c2c(OC)cccc2OC)c1 | 1.56%
85 | CCn1c2ccccc2c2cc(NC(=O)c3cccc([N+](=O)[O-])c3C)ccc21 | 7.76%
86 | NS(=O)(=O)c1ccc(CCNC(=O)c2cc(-c3ccc(Br)cc3)nc3ccccc23)cc1 | 12.1%
87 | Br.Cc1ccc(C(=O)CSc2nc3ccccc3o2)cc1 | 9.69%
